The IC50 comes from the fitted curve, where viability falls to half of the control; where the fit passes the top or lowest dose, that dose stands as a limit. The AUC spans the tested range (256-fold, ending at the top dose) of the same fit; values near 1 show little effect. For part of these data: Where the top dose is marked as inferred, it was calculated from the reported fits.
Assays:
Assay in all cases: Viability of human cancer cell lines after 72 h of drug (GDSC screen)
Midostaurin = compound: CO[C@@H]1[C@H](N(C)C(=O)c2ccccc2)C[C@H]2O[C@]1(C)n1c3ccccc3c3c4c(c5c6ccccc6n2c5c31)C(=O)NC4 [Midostaurin]; settings: top dose 0.512 µM; top dose inferred
Description: (§1)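 Human cancer cell lines in 384-well plates, medium with 10% serum, drug for 72 h over a 256-fold dose range (nine 2-fold or five 4-fold steps up to the top dose). Adherent lines were fixed and stained with the nucleic acid dye Syto60, suspension lines read with resazurin; signal relative to control wells, capped at 0 and 100%. One two-parameter sigmoid per drug and line, fitted in a mixed model over all curves with the slope shared within a line.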

Mitomycin C = compound: CO[C@@]12[C@H](COC(N)=O)C3=C(C(=O)C(C)=C(N)C3=O)N1C[C@@H]1N[C@@H]12 [Mitomycin C]; settings: top dose 16 µM
Description: as §1

Bosutinib = compound: COc1cc(Nc2c(C#N)cnc3cc(OCCCN4CCN(C)CC4)c(OC)cc23)c(Cl)cc1Cl [Bosutinib]; settings: top dose 2 µM
Description: as §1

IOX2 = compound: O=C(O)CNC(=O)c1c(O)c2ccccc2n(Cc2ccccc2)c1=O [IOX2]; settings: top dose 0.1 µM; top dose inferred
Description: as §1

NVP-BHG712 = compound: Cc1ccc(C(=O)Nc2cccc(C(F)(F)F)c2)cc1Nc1nc(-c2cccnc2)nc2c1cnn2C [NVP-BHG712]; settings: top dose 10.24 µM; top dose inferred
Description: as §1

Cell Line | AUC (Midostaurin) | IC50 (Midostaurin) [nM] | AUC (Mitomycin C) | IC50 (Mitomycin C) [nM] | AUC (Bosutinib) | IC50 (Bosutinib) [nM] | AUC (IOX2) | IC50 (IOX2) [nM] | AUC (NVP-BHG712) | IC50 (NVP-BHG712) [nM]
22RV1 (prostate, adherent) | 0.957 | > 512 | 0.229 | 131 | 0.969 | > 2000 | 0.961 | > 100 | 0.835 | 9180
42-MG-BA (glioma, adherent) | 0.736 | 159 | 0.65 | 2680 | 0.953 | > 2000 | 0.984 | > 100 | 0.939 | > 10200
201T (lung adenocarcinoma, adherent) | 0.72 | 161 | 0.048 | < 62.5 | 0.943 | > 2000 |  |  | 0.949 | > 10200
451Lu (melanoma, adherent) | 0.957 | > 512 | 0.342 | 372 | 0.82 | 1090 | 0.985 | > 100 | 0.876 | 9380
639-V (bladder, adherent) | 0.918 | > 512 | 0.074 | < 62.5 | 0.949 | > 2000 | 0.991 | > 100 | 0.992 | > 10200
647-V (bladder, adherent) | 0.97 | > 512 | 0.186 | 114 | 0.897 | > 2000 | 0.986 | > 100 | 0.976 | > 10200
5637 (bladder, adherent) | 0.859 | 363 | 0.103 | < 62.5 | 0.823 | 1030 | 0.974 | > 100 | 0.882 | 9100
8305C (thyroid, adherent) | 0.862 | > 512 | 0.273 | 182 | 0.928 | > 2000 | 0.972 | > 100 | 0.957 | > 10200
8505C (thyroid, adherent) | 0.809 | 287 | 0.372 | 433 | 0.904 | > 2000 | 0.925 | > 100 | 0.826 | 6710
23132-87 (stomach, adherent) | 0.949 | > 512 | 0.141 | 71 | 0.957 | > 2000 | 0.984 | > 100 | 0.975 | > 10200
A427 (non-small cell lung carcinoma, adherent) | 0.66 | 89.6 | 0.332 | 338 | 0.896 | > 2000 | 0.956 | > 100 | 0.92 | > 10200
A704 (kidney, adherent) | 0.87 | 453 | 0.651 | 2590 | 0.943 | > 2000 | 0.986 | > 100 | 0.901 | > 10200
A2058 (melanoma, adherent) | 0.878 | 424 | 0.149 | 97 | 0.951 | > 2000 | 0.956 | > 100 | 0.976 | > 10200
ABC-1 (lung adenocarcinoma, adherent) | 0.764 | 223 | 0.221 | 125 | 0.82 | 1460 | 0.98 | > 100 | 0.962 | > 10200
AGS (stomach, adherent) | 0.778 | 185 | 0.166 | 112 | 0.971 | > 2000 | 0.961 | > 100 | 0.817 | 4970
AN3-CA (endometrium, adherent) | 0.805 | 288 | 0.366 | 411 | 0.977 | > 2000 | 0.983 | > 100 | 0.955 | > 10200
ASH-3 (thyroid, adherent) | 0.885 | > 512 | 0.488 | 928 | 0.946 | > 2000 | 0.957 | > 100 | 0.988 | > 10200
AU565 (breast, adherent) | 0.951 | > 512 | 0.404 | 527 | 0.967 | > 2000 | 0.971 | > 100 | 0.96 | > 10200
BFTC-905 (bladder, adherent) | 0.846 | 298 | 0.155 | 108 | 0.959 | > 2000 | 0.983 | > 100 | 0.892 | 9090
BHT-101 (thyroid, adherent) | 0.933 | > 512 | 0.582 | 1690 | 0.695 | 450 | 0.96 | > 100 | 0.723 | 2810
BICR10 (head and neck, adherent) | 0.913 | > 512 | 0.638 | 2570 | 0.837 | 1630 | 0.981 | > 100 | 0.985 | > 10200
BICR22 (head and neck, adherent) | 0.903 | > 512 | 0.446 | 695 | 0.805 | 1200 | 0.979 | > 100 | 0.983 | > 10200
BICR78 (head and neck, adherent) | 0.92 | > 512 | 0.572 | 1620 | 0.581 | 216 | 0.981 | > 100 | 0.979 | > 10200
BL-41 (Burkitt lymphoma, suspension) | 0.907 | 404 | 0.306 | 332 | 0.909 | 1610 | 0.982 | > 100 | 0.759 | 2830
BT-20 (breast, adherent) | 0.941 | > 512 | 0.351 | 349 | 0.961 | > 2000 | 0.982 | > 100 | 0.962 | > 10200
BT-474 (breast, adherent) | 0.985 | > 512 | 0.631 | 2400 | 0.979 | > 2000 | 0.97 | > 100 | 0.957 | > 10200
BT-483 (breast, adherent) | 0.949 | > 512 | 0.778 | 14200 | 0.972 | > 2000 | 0.955 | > 100 | 0.976 | > 10200

Cell Line | AUC (Midostaurin) | IC50 (Midostaurin) [nM] | AUC (Mitomycin C) | IC50 (Mitomycin C) [nM] | AUC (Bosutinib) | IC50 (Bosutinib) [nM] | AUC (IOX2) | IC50 (IOX2) [nM] | AUC (NVP-BHG712) | IC50 (NVP-BHG712) [nM]
Becker (glioma, adherent) | 0.929 | > 512 | 0.485 | 906 | 0.958 | > 2000 | 0.968 | > 100 | 0.93 | > 10200
C3A (liver, adherent) | 0.905 | > 512 | 0.276 | 224 | 0.987 | > 2000 | 0.978 | > 100 | 0.988 | > 10200
C32 (melanoma, adherent) | 0.973 | > 512 | 0.531 | 1230 | 0.953 | > 2000 | 0.985 | > 100 | 0.91 | > 10200
C-4-I (cervix, adherent) | 0.886 | > 512 | 0.242 | 167 | 0.812 | 1190 | 0.984 | > 100 | 0.961 | > 10200
C-33-A (cervix, adherent) | 0.935 | > 512 | 0.388 | 493 | 0.696 | 444 | 0.939 | > 100 | 0.848 | 7680
CAL-12T (non-small cell lung carcinoma, adherent) | 0.815 | 325 | 0.394 |  | 0.871 | > 2000 | 0.976 | > 100 | 0.904 | > 10200
CAL-27 (head and neck, adherent) | 0.985 | > 512 | 0.104 | < 62.5 | 0.755 | 688 | 0.837 | 69 | 0.942 | > 10200
CAL-29 (bladder, adherent) | 0.935 | > 512 | 0.249 | 178 | 0.891 | > 2000 | 0.976 | > 100 | 0.956 | > 10200
CAL-33 (head and neck, adherent) | 0.89 | > 512 | 0.421 | 607 | 0.611 | 252 | 0.912 | > 100 | 0.974 | > 10200
CAL-39 (cervix, adherent) | 0.842 | 378 | 0.143 | 72.1 | 0.88 | > 2000 | 0.984 | > 100 | 0.907 | > 10200
CAL-51 (breast, adherent) | 0.689 | 99.4 | 0.071 | < 62.5 | 0.991 | > 2000 | 0.973 | > 100 | 0.991 | > 10200
CAL-72 (osteosarcoma, adherent) | 0.958 | > 512 | 0.835 | 13300 | 0.981 | > 2000 | 0.976 | > 100 | 0.984 | > 10200
CAL-78 (chondrosarcoma, adherent) | 0.841 | 435 | 0.932 | > 16000 | 0.986 | > 2000 | 0.985 | > 100 | 0.961 | > 10200
CAL-85-1 (breast, adherent) | 0.87 | > 512 | 0.197 | 93.1 | 0.976 | > 2000 | 0.978 | > 100 | 0.882 | > 10200
CAL-120 (breast, adherent) | 0.766 | 244 | 0.697 | 4230 | 0.955 | > 2000 | 0.978 | > 100 | 0.859 | > 10200
KMS-12-BM (myeloma, suspension) | 0.966 | > 512 | 0.537 | 1240 | 0.715 | 446 |  |  | 0.97 | > 10200
KYSE-450 (oesophagus, adherent) | 0.847 | 346 | 0.394 | 521 | 0.89 | > 2000 |  |  | 0.905 | > 10200
LOU-NH91 (lung squamous cell carcinoma, adherent) | 0.847 | 431 | 0.709 | 4130 | 0.605 | 249 |  |  | 0.966 | > 10200
NCI-H647 (non-small cell lung carcinoma, adherent) | 0.794 | 248 | 0.414 | 573 | 0.948 | > 2000 |  |  | 0.942 | > 10200
NCI-H1734 (lung adenocarcinoma, adherent) | 0.851 | 456 | 0.241 | 163 | 0.976 | > 2000 |  |  | 0.95 | > 10200
NCI-H2052 (mesothelioma, adherent) | 0.821 | 410 | 0.587 | 1850 | 0.968 | > 2000 |  |  | 0.97 | > 10200
NCI-H3122 (lung adenocarcinoma, adherent) | 0.909 | > 512 | 0.119 | < 62.5 | 0.987 | > 2000 |  |  | 0.918 | > 10200
OCUM-1 (stomach, adherent) | 0.912 | > 512 | 0.365 | 406 | 0.947 | > 2000 |  |  | 0.987 | > 10200
PA-1 (ovary, adherent) | 0.799 | 187 | 0.116 | 92 | 0.952 | > 2000 |  |  | 0.882 | 6880
SAT (head and neck, adherent) | 0.914 | > 512 | 0.729 | 6580 | 0.677 | 514 |  |  | 0.948 | > 10200
STS-0421 (soft tissue, adherent) | 0.836 | 421 | 0.337 | 325 | 0.96 | > 2000 | 0.97 | > 100 |  | 
VMRC-RCW (kidney, adherent) | 0.892 | > 512 | 0.288 | 266 | 0.981 | > 2000 |  |  | 0.964 | > 10200
